Results: the BET-seq Pho4 binding data (Le et al. 2018)
Some of the results follow. The energies were worked out here from pooled read counts, against the library average; single values are noisy.

molecular target: T1, Pho4 (S. cerevisiae) (UniProt P07270); test: relative binding free energy (BET-seq); higher = weaker binding; details: reference: library average
T1 sequence: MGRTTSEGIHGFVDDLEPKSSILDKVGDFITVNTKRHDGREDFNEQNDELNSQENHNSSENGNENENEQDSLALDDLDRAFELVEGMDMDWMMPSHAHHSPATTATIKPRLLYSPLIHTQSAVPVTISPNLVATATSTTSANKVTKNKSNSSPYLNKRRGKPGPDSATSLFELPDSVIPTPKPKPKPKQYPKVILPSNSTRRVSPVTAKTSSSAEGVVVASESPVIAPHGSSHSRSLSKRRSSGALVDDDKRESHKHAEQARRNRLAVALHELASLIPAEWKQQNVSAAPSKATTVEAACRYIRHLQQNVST

Sequence	relative binding free energy
TGTTGCACGTGCTGGT	-0.09 kcal/mol
TTTAGCACGTGAGATT	0.19 kcal/mol
TGGGTCACGTGACCGT	0.09 kcal/mol
GTGGTCACGTGCCTTG	0.09 kcal/mol
CCGGTCACGTGTGGTG	0.1 kcal/mol
CTTGTCACGTGTAGTG	0.18 kcal/mol
GTGTTCACGTGAGATA	0.37 kcal/mol
TGAGTCACGTGTGAGT	0.27 kcal/mol
GTCAGCACGTGGAAGT	0.12 kcal/mol
GTGTGCACGTGCTGAG	-0.09 kcal/mol
TCGTACACGTGTGGGC	0.09 kcal/mol
TAGTGCACGTGCGGTT	0.04 kcal/mol
CCTGTCACGTGTATGT	-0.01 kcal/mol
CACGGCACGTGGGTTG	-0.25 kcal/mol
TGAGACACGTGAGGGG	0.28 kcal/mol
CGTGGCACGTGTTTTA	-0.14 kcal/mol
GCGTACACGTGTGGAT	0.23 kcal/mol
TAAGACACGTGGCGGG	-0.06 kcal/mol
TTAGGCACGTGGATTA	-0.13 kcal/mol
TGCGACACGTGGGCGG	-0.28 kcal/mol
AGCGTCACGTGTCGTT	0.1 kcal/mol
TAAATCACGTGCGTGG	0.07 kcal/mol
ATGAACACGTGTGCGG	-0.01 kcal/mol
GTTAGCACGTGTGTCT	0.03 kcal/mol
AAGAACACGTGGTGGG	-0.08 kcal/mol

Sequence	relative binding free energy
TGTGCCACGTGGTGCG	-0.21 kcal/mol
TCTAACACGTGGTTGG	0.01 kcal/mol
TAAATCACGTGTTGGA	0.16 kcal/mol
CGTAGCACGTGTTGGG	-0.02 kcal/mol
AGTTTCACGTGGCTGC	0.16 kcal/mol
TAAATCACGTGAATTG	0.25 kcal/mol
GTAGTCACGTGAGTGC	0.39 kcal/mol
TTTGTCACGTGTCGTT	0.08 kcal/mol
AGCATCACGTGTGGGT	0.14 kcal/mol
TGTGTCACGTGATGGG	0.24 kcal/mol
CCGGGCACGTGATTGG	-0.03 kcal/mol
CTGAGCACGTGGTTTT	-0.13 kcal/mol
AAAGGCACGTGATGAG	0.08 kcal/mol
TGTTCCACGTGGGTCG	-0.15 kcal/mol
TGTAGCACGTGTGCTG	0.04 kcal/mol
AAGGTCACGTGCTATG	0.06 kcal/mol
ATGGTCACGTGAAGTG	0.18 kcal/mol
ACGTGCACGTGGGGGA	-0.22 kcal/mol
AAGCGCACGTGAGGGT	0.1 kcal/mol
TGAGCCACGTGGGTAA	-0.07 kcal/mol
GGCCTCACGTGTGAGT	0.27 kcal/mol
CCGTGCACGTGTTTGT	0.02 kcal/mol
TTTAGCACGTGTTATC	-0.1 kcal/mol
TAGGACACGTGATTGT	0.13 kcal/mol
GTGCACACGTGGGTAT	-0.11 kcal/mol

Sequence	relative binding free energy
TAGTGCACGTGAGCAT	0.1 kcal/mol
ATTTTCACGTGTATAT	0.21 kcal/mol
TTGCGCACGTGTTGTT	0 kcal/mol
AGTCGCACGTGGGATA	-0.12 kcal/mol
GGTCACACGTGGGGAG	0.09 kcal/mol
GCCTGCACGTGGTGTG	-0.12 kcal/mol
ATTATCACGTGCGTAG	0.23 kcal/mol
CTGGTCACGTGTCTGG	0.11 kcal/mol
AGCATCACGTGTAGTG	0.06 kcal/mol
GGTTTCACGTGGGGGC	0.31 kcal/mol
ATTCGCACGTGTTTTG	-0.01 kcal/mol
GTGTTCACGTGCCAGG	0.27 kcal/mol
CGTGTCACGTGGTTTC	0.11 kcal/mol
AAATGCACGTGTGGAG	-0.01 kcal/mol
GGAGTCACGTGTTGAA	0.33 kcal/mol
GCGTGCACGTGTTGGG	0.04 kcal/mol
ATTAACACGTGTATGG	-0.05 kcal/mol
GCGGTCACGTGTAGTT	0.21 kcal/mol
CCTGACACGTGTGTTG	0.11 kcal/mol
GATGACACGTGTGGGT	0.1 kcal/mol
AGATTCACGTGGGATT	0.25 kcal/mol
GTGCGCACGTGTGTTC	0.09 kcal/mol
TGGCTCACGTGCAGTG	0.19 kcal/mol
